The other results are listed elsewhere or left out. Single values are uncertain, as repeats are few or missing.
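Further: cells treated in 1,536-well plates, then fixed and DAPI-stained, with nuclei counted from automated high-throughput microscope images.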

For the assay, the system named is A375. In words: cell count relative to DMSO control; melanoma cells; higher = more viable cells. To be noted: library dose: standard library concentration; 72 h.
Consider `C[C@]1(c2nc3c(C(N)=O)cccc3[nH]2)CCCN1` [Veliparib] + Oc1cc(-c2nc(-c3ccccc3)[nH]c2-c2ccncc2)ccc1Cl [L779450] (first compound 7 µM, partner dose 1 µM), for which the cell count came out at 87.2%.
The same measure for `C[C@]1(c2nc3c(C(N)=O)cccc3[nH]2)CCCN1` [Veliparib] + COc1ccc2c(c1)CCC1C2CCC2(C)C(NCCCCCCN3C(=O)C=CC3=O)CCC12 [U73122] (first compound 7 µM, partner dose 2 µM): 75%; for `OCCn1cc(-c2cnc3nnn(Cc4ccc5ncccc5c4)c3n2)cn1` + O=C(Nc1ccccc1)c1cc([N+](=O)[O-])ccc1Cl [GW9662] (first compound 5 µM, partner dose 10 µM): 123%; for `CN(C)S(=O)(=O)c1ccc2c(c1)/C(=C/c1cc3c([nH]1)CCCC3)C(=O)N2` + O=c1cc(-c2cccc3c2Sc2ccccc2S3)oc(N2CCOCC2)c1 [KU55933] (first compound 2 µM, partner dose 5 µM): 149%.
The same measure for `CO[C@@H]1[C@H](N(C)C(=O)c2ccccc2)C[C@H]2O[C@]1(C)n1c3ccccc3c3c4c(c5c6ccccc6n2c5c31)C(=O)NC4` [Midostaurin] + O=c1cc(-c2cccc3c2Sc2ccccc2S3)oc(N2CCOCC2)c1 [KU55933] (first compound 0.4 µM, partner dose 5 µM): 62.9%; for `C[C@]1(c2nc3c(C(N)=O)cccc3[nH]2)CCCN1` [Veliparib] + CCN(CC)CCCCNc1ncc2cc(-c3cc(OC)cc(OC)c3)c(NC(=O)NC(C)(C)C)nc2n1 [PD173074] (first compound 7 µM, partner dose 0.5 µM): 96.9%; for `NC(=O)Nc1cc(-c2cccc(F)c2)sc1C(=O)N[C@H]1CCCNC1` + COC(=O)c1sccc1S(=O)(=O)Nc1ccc(Nc2ccccc2)cc1OC [GSK0660] (first compound 0.1 µM, partner dose 5 µM): 50.7%.
The same measure for `CN(C)S(=O)(=O)c1ccc2c(c1)/C(=C/c1cc3c([nH]1)CCCC3)C(=O)N2` + COc1ccc(COc2ccc(Cc3cnc(N)nc3N)cc2OC)cc1 [GW2580] (first compound 2 µM, partner dose 5 µM): 153%.
Regarding `Cc1nc(Nc2ncc(C(=O)Nc3c(C)cccc3Cl)s2)cc(N2CCN(CCO)CC2)n1` [dasatanib] + Cc1cc([N+](=O)[O-])ccc1NS(=O)(=O)c1cc(Cl)ccc1Cl [FH535] (first compound 0.02 µM, partner dose 5 µM), the cell count is 60.3%.
The same measure for `C=CCn1c(=O)c2cnc(Nc3ccc(N4CCN(C)CC4)cc3)nc2n1-c1cccc(C(C)(C)O)n1` + COc1ccc(COc2ccc(Cc3cnc(N)nc3N)cc2OC)cc1 [GW2580] (first compound 0.1 µM, partner dose 5 µM): 60.7%; for `NCC(=O)Nc1ccc(-n2nc(C(F)(F)F)cc2-c2ccc3c(ccc4ccccc43)c2)cc1` + CCN(CC)CCCCNc1ncc2cc(-c3cc(OC)cc(OC)c3)c(NC(=O)NC(C)(C)C)nc2n1 [PD173074] (first compound 5 µM, partner dose 0.5 µM): 58.2%; for `C=CCn1c(=O)c2cnc(Nc3ccc(N4CCN(C)CC4)cc3)nc2n1-c1cccc(C(C)(C)O)n1` + CC(C)CCN1c2nc(Nc3cc(F)c(O)c(F)c3)ncc2N(C)C(=O)C1C [BID1870] (first compound 0.1 µM, partner dose 1 µM): 73.1%.
The same measure for `CO[C@@H]1[C@H](N(C)C(=O)c2ccccc2)C[C@H]2O[C@]1(C)n1c3ccccc3c3c4c(c5c6ccccc6n2c5c31)C(=O)NC4` [Midostaurin] + O=C(O)C(=O)Nc1sc2c(c1C(=O)O)CCNC2 [TCS401] (first compound 0.4 µM, partner dose 8.33333 µM): 129%.
The same measure for `CO[C@@H]1[C@H](N(C)C(=O)c2ccccc2)C[C@H]2O[C@]1(C)n1c3ccccc3c3c4c(c5c6ccccc6n2c5c31)C(=O)NC4` [Midostaurin] + COc1ccc2c(c1)CCC1C2CCC2(C)C(NCCCCCCN3C(=O)C=CC3=O)CCC12 [U73122] (first compound 0.4 µM, partner dose 2 µM): 56.5%.
As to `NC(=O)Nc1cc(-c2cccc(F)c2)sc1C(=O)N[C@H]1CCCNC1` + COc1cc2ncnc(Nc3ccc(Oc4ccccc4)cc3)c2cc1OC [SrcI1] (first compound 0.1 µM, partner dose 10 µM), the cell count came to 67.6%.
